Assay results taken from PubChem BioAssay AID624418 (National Center for Advancing Translational Sciences (NCATS), 2012).
Hit rate of the full screen: of about 410,000 compounds, about 530 (0.13%) were called active. The shares of active, inactive and inconclusive entries below differ from those in the screen. The call rests on the fitted dose curve; in most records, active means well fitted inhibition curve with a large enough effect; inconclusive means small, poorly fitted or top-dose-only effect, or another doubt; inactive means no such curve, though single readings can be large or run the other way. Potencies of inconclusive entries are doubtful fits and often do not repeat.

Assay: qHTS of GLP-1 Receptor Inverse Agonists: Cytotox Screen
Conditions: HEK293 cAMP-luciferase reporter cells, luminescence, 24 h; series mostly up to 38.3 µM
Procedure, shortened: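 Luminescence readout: signal drop marks cytotoxicity. Plated cells grew 12 h at 37 °C, 5% CO2, received 23 nL compound for 24 h, then got luciferase reagent, read after 12 min at RT.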
Potency means the concentration at half of the fitted maximal effect.

SMILES	Potency
COC1=C(Nc2ccc(C)cc2)C(=O)c2ccccc2C1=O	inconclusive: 12.6 µM [inhibitor, single point]
Cc1cccc(-n2nc3c(c2NC(=O)C(C)C)CS(=O)(=O)C3)c1C	inconclusive: 0.501 µM [inhibitor, full curve, poor fit]
COc1ccc(CC(=O)Nc2cccc(-c3nnc(-c4ccccc4)o3)c2)cc1OC	inconclusive: 28.2 µM [inhibitor, single point]
O=C(Nc1ccc(O)cc1)c1cc2n(n1)C(C(F)(F)F)CC(c1ccco1)N2 (stereo not drawn)	inconclusive: 15.8 µM [inhibitor, partial curve, poor fit]
CC(=O)N1N=C(c2ccc(Cl)cc2)CC1c1ccco1 (stereo not drawn)	inactive
CCc1nc2ccc(C(=O)Nc3cccc(OCC(=O)N(C)C)c3)cn2c1N(C)Cc1cc2ccccc2s1	inconclusive: 10 µM [inhibitor, single point]
COc1ccc(Br)cc1CNC(=O)c1ccc2c(c1)nc1n2CCCCC1	inactive
COc1ccc(-n2nnnc2/C=C/Nc2cc(C(F)(F)F)ccc2OC)cc1	inactive
CCNC(=S)N/N=C/c1c(Cl)cccc1Cl	inconclusive: 8.91 µM [inhibitor, partial curve]
Cc1cc2[nH]c3c4ccccc4nc(C)c3c2cc1C	inconclusive: 10 µM [inhibitor, single point]
Cc1ccc(/C=N/Nc2nc3ccccc3s2)o1	inconclusive: 28.2 µM [inhibitor, single point]
COc1ccc(S(=O)(=O)N(C)C)cc1NC(=O)Cc1cccs1	inactive
CN(CCC#N)c1ccc(C=C(C#N)c2ccc(Br)cc2)cc1	inconclusive: 8.91 µM [inhibitor, partial curve, poor fit]
O=C(CSC1=NNC(c2ccccn2)S1)Nc1ccc(C(F)(F)F)cc1 (stereo not drawn)	inconclusive: 3.55 µM [inhibitor, full curve, poor fit]
Cc1ccc(-c2csc(Nc3ccccn3)n2)cc1	inactive
CN(CCc1ccccc1)C(=O)c1cccc(NC(=O)Cc2cccc(NC(=O)C3CCCN(C(=O)C4CCCC4)C3)c2)c1 (stereo not drawn)	inactive
COc1cccc(-c2nc(-c3ccc(NC(=O)Cc4ccccc4OC)cc3)no2)c1	inconclusive: 11.2 µM [inhibitor, partial curve, poor fit]
Cc1ccc2nc(-c3ccc(NC(=O)c4ccco4)cc3)[nH]c2c1	inconclusive: 10 µM [inhibitor, partial curve]
Cn1c(=O)c2[nH]c(NN=Cc3cccc(Br)c3)nc2n(C)c1=O	inactive
O=S(=O)(NCCc1ccccc1)c1cnc(Cl)c(Br)c1	inconclusive: 28.2 µM [inhibitor, single point]
NC(CCc1ccccc1)c1csc(NC(=O)Nc2cccc(Cl)c2)n1 (stereo not drawn)	inconclusive: 28.2 µM [inhibitor, single point]
COCCCC1CCN(C(=O)c2cc(COc3ccc(C)nc3)on2)CC1	inactive

SMILES	Potency
Cn1cccc1/C=C1\SC(=S)N(NC(=O)c2ccccc2O)C1=O	inconclusive: 0.447 µM [inhibitor, full curve, poor fit]
CC(=O)/C(N=Nc1cc(C)ccc1O)=C(\C)O	inconclusive: 6.31 µM [inhibitor, partial curve, poor fit]
CCC(=O)NC(=S)Nc1ccc(NC(=O)COc2ccc(Cl)cc2Cl)cc1	inconclusive: 11.2 µM [inhibitor, partial curve, poor fit]
CCCN(CC(=O)Nc1ccccc1C)C(=O)c1ccc(N2CCCCCC2)c([N+](=O)[O-])c1	inconclusive: 28.2 µM [inhibitor, single point]
COc1cc(NC(=O)c2cc(-c3cccs3)on2)cc(OC)c1OC	inconclusive: 12.6 µM [inhibitor, single point]
COc1ccc(-c2cc(C(F)(F)F)nc(S(=O)(=O)CCCC(=O)Nc3cccc(O)c3)n2)cc1OC	inconclusive: 12.6 µM [inhibitor, single point]
CN(CC(=O)Nc1cccc(F)c1)CC(=O)Nc1cccc(S(=O)(=O)N2CCCCCC2)c1	inconclusive: 10 µM [inhibitor, single point]
CC1(C(=O)N/N=C/c2ccc([N+](=O)[O-])o2)CC1(Br)Br (stereo not drawn)	inconclusive: 28.2 µM [inhibitor, single point]
O=C(Nc1nccs1)c1ccc2ccccc2n1	inconclusive: 10 µM [inhibitor, single point]
Cc1cccc(OCCCC(=O)Nc2nc3ccccc3[nH]2)c1	inconclusive: 11.2 µM [inhibitor, single point]
Cc1ccc([C@H]2C(C(=O)O)=CC[C@@H](c3ccc(Cl)cc3)N2S(=O)(=O)c2ccc(C)cc2)cc1	inactive
COc1ccccc1NC(=O)C1=C(C)Nc2c(C(=O)Nc3ccc(F)cc3)cnn2C1c1cccc([N+](=O)[O-])c1 (stereo not drawn)	inactive
CCN(CC)c1ccc(C2C(C(=O)Nc3ccccn3)=C(C)NC3=C2C(=O)CC(C)(C)C3)cc1 (stereo not drawn)	inactive
CN(C)CCOC1c2ccccc2C=Cc2ccccc21	inactive
Cc1nc2cc(C(=O)N3c4ccccc4CC3C)ccc2s1 (stereo not drawn)	inconclusive: 3.98 µM [inhibitor, partial curve, poor fit]
CC(C)C[C@H](CO)Nc1nc(Nc2cccc(Cl)c2)c2ncn(C(C)C)c2n1	inconclusive: 11.2 µM [inhibitor, single point]
CCOC(=O)c1cnn(-c2ccc(C(=O)Nc3cc(OC)c(OC)c(OC)c3)cc2)c1N	inactive
Cc1cccc(NC(=S)NCc2ccccn2)c1	inconclusive: 28.2 µM [inhibitor, single point]
N#Cc1ccc(COC(=O)c2cccnc2Cl)cc1	inconclusive: 4.47 µM [inhibitor, partial curve, poor fit]
Cc1ccc(C(=O)/C=C/C(=O)c2ccc(C)cc2)cc1	inconclusive: 28.2 µM [inhibitor, single point]
CCCCN(C)CCCNC(=O)C1CCN(c2nc3ccc(CC)cc3s2)CC1	inconclusive: 12.6 µM [inhibitor, single point]
